Results are given in words; binding and its absence hold for the method and conditions named. Some binding calls cover weakened binding; strength is not graded here. Where a sequence is shown, tags or fusion partners need not be part of it.
T1: Flag-tagged mouse SPO11 (β isoform) E224A (mouse) (UniProt Q9WTK8)
T1 sequence: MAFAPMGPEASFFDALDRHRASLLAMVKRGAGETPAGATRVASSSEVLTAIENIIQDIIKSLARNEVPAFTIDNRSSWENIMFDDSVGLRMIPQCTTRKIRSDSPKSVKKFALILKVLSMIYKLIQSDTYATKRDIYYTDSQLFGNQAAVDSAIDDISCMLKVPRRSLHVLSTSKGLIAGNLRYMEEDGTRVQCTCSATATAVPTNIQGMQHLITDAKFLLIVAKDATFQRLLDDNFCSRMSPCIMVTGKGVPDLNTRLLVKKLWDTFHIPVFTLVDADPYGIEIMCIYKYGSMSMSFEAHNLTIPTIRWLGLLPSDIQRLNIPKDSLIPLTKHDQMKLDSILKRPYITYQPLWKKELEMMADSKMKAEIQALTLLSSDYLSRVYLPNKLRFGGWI

T2: Flag-tagged mouse SPO11 (β isoform) Y138F (mouse) (UniProt Q9WTK8)
T2 sequence: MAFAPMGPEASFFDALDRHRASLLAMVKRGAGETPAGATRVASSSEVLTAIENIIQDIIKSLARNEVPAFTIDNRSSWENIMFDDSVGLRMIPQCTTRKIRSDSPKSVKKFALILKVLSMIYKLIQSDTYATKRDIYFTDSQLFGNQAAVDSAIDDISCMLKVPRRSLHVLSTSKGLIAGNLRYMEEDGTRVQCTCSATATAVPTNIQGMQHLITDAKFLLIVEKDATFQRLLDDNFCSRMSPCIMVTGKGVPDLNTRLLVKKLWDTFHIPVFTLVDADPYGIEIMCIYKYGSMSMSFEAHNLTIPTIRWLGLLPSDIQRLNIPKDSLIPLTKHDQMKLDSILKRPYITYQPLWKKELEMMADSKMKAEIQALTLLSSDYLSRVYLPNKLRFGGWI


Legend:
[1] = biological target: T1, Flag-tagged mouse SPO11 (β isoform) E224A (mouse); test: SEC; proteins co-expressed in FreeStyle 293-F cells; lysate (25 mM HEPES-NaOH pH 7.5, 500 mM NaCl) on anti-Flag M2 affinity gel, eluted with Flag peptide, then Superdex 200 Increase 10/300 GL; fractions on Coomassie-stained SDS-PAGE
[2] = biological target: T2, Flag-tagged mouse SPO11 (β isoform) Y138F (mouse); test: as above
[3] = biological target: T3, Flag–SPO11–TOP6BL complex (1:1), wild type (mouse) (UniProt Q9WTK8+J3QMY9); test: mass photometry; self-association of the purified SPO11–TOP6BL complex, 28 nM, 25 mM HEPES-NaOH pH 7.5, 150 mM NaCl, 2 mM DTT, with 5 mM ATP; both purified
[4] = biological target: T3, Flag–SPO11–TOP6BL complex (1:1), wild type (mouse); test: mass photometry; self-association of the purified SPO11–TOP6BL complex, 28 nM (legend; methods say 15 nM final), 25 mM HEPES-NaOH pH 7.5, 150 mM NaCl, 2 mM DTT, without ATP; both purified
[5] = biological target: T3, Flag–SPO11–TOP6BL complex (1:1), wild type (mouse); test: SEC; self-association of the purified SPO11–TOP6BL complex: anti-Flag affinity-purified material on Superdex 200 Increase 10/300 GL, size standards from a separate calibration run; both purified

| Binder | binding [1] | binding [2] | binding [3] | binding [4] | binding [5] |
| --- | --- | --- | --- | --- | --- |
| mouse TOP6BL, untagged (natural protein, UniProt J3QMY9-1 1-579, looked up, mouse TOP6BL, UniProt J3QMY9-1, untagged, optimized coding DNA) MERTALAVCEILRYLIIHWKCEAGTAKGTLLDGQLVISIEALRSKHLPDSLHCIITIASTRSVYGGLNFKKFLQEIQPALPRLSAKLALASEEGGRSQDASGIAPCQVTFEVDENSQSLMTDCLVIKHFLRKIIIVHHKLKFSFSVAVNGTLSAETFGAENEPTLRLDNGVTLVVGFQRYVSKPKLNWSEAHCSRIHPVLGHPAPLFIPDAKADTGLLGELTLTPAAALCPSPKGFSSQLCRISSVSIFLYGPLGLPLLSSDQDQPSTAVFRDTSYFIDWKKYNLFMVPNLDLNLDTQSVLPDVNYKAESPEGNQSQNMNAQGPALLLFLFVDFQSDVPVQQAKIWGLHTLLTAHLSAILSESRSTVQQSIQSAVDQVWQLYHHDAKTQQRLQASLSVAVNSIMSVLTGSTRSSFRKTCLQALEAADTQEFGVKLHRIFYDITQHQFLKHCSCDTEQHLTPEKNISAQNTKDQHKNIAQEFPEESIGQAENKRPKRGSPNHGREESRVLGSARDRSPPKSATRDRELTEVSLTARGSQTQAAHGRAQAAEAASPAGGLEDLWLQEVSNLSEWLNPGHRS | binds | binds | – | – | – |
| Flag–SPO11–TOP6BL complex (1:1), wild type (complex, UniProt Q9WTK8-1 1-396; J3QMY9-1 1-579) chain 1: MAFAPMGPEASFFDALDRHRASLLAMVKRGAGETPAGATRVASSSEVLTAIENIIQDIIKSLARNEVPAFTIDNRSSWENIMFDDSVGLRMIPQCTTRKIRSDSPKSVKKFALILKVLSMIYKLIQSDTYATKRDIYYTDSQLFGNQAAVDSAIDDISCMLKVPRRSLHVLSTSKGLIAGNLRYMEEDGTRVQCTCSATATAVPTNIQGMQHLITDAKFLLIVEKDATFQRLLDDNFCSRMSPCIMVTGKGVPDLNTRLLVKKLWDTFHIPVFTLVDADPYGIEIMCIYKYGSMSMSFEAHNLTIPTIRWLGLLPSDIQRLNIPKDSLIPLTKHDQMKLDSILKRPYITYQPLWKKELEMMADSKMKAEIQALTLLSSDYLSRVYLPNKLRFGGWI chain 2: MERTALAVCEILRYLIIHWKCEAGTAKGTLLDGQLVISIEALRSKHLPDSLHCIITIASTRSVYGGLNFKKFLQEIQPALPRLSAKLALASEEGGRSQDASGIAPCQVTFEVDENSQSLMTDCLVIKHFLRKIIIVHHKLKFSFSVAVNGTLSAETFGAENEPTLRLDNGVTLVVGFQRYVSKPKLNWSEAHCSRIHPVLGHPAPLFIPDAKADTGLLGELTLTPAAALCPSPKGFSSQLCRISSVSIFLYGPLGLPLLSSDQDQPSTAVFRDTSYFIDWKKYNLFMVPNLDLNLDTQSVLPDVNYKAESPEGNQSQNMNAQGPALLLFLFVDFQSDVPVQQAKIWGLHTLLTAHLSAILSESRSTVQQSIQSAVDQVWQLYHHDAKTQQRLQASLSVAVNSIMSVLTGSTRSSFRKTCLQALEAADTQEFGVKLHRIFYDITQHQFLKHCSCDTEQHLTPEKNISAQNTKDQHKNIAQEFPEESIGQAENKRPKRGSPNHGREESRVLGSARDRSPPKSATRDRELTEVSLTARGSQTQAAHGRAQAAEAASPAGGLEDLWLQEVSNLSEWLNPGHRS | – | – | no binding (tested: 28 nM, with 5 mM ATP) | no binding (tested: 28 nM) | no binding |
